The full ranking holds about 4,100 sequences; the median of “arbitrary fluorescence units” is about 780, and the highest 2% start at about 22,000. The list shows a part of the results.

The target of this assay is T1, ETS1 (UniProt P14921).
T1 sequence: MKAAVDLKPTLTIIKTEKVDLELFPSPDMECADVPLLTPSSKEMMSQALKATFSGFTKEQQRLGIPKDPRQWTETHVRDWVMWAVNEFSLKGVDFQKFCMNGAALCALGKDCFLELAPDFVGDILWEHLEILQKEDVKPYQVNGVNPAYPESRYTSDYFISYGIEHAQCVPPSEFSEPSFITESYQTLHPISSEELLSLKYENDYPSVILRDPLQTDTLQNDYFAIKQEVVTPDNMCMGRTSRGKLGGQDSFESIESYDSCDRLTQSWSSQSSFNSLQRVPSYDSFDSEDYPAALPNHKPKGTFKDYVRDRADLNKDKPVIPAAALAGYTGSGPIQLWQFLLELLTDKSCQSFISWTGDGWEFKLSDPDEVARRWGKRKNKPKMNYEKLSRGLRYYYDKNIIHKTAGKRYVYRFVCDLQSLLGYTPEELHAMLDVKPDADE
Kind of assay: ETS1 binding intensity (PBM fluorescence), ETS1 alone (arbitrary fluorescence units); higher = stronger binding. The note with it: ETS1 concentration 1 nM; RUNX1 concentration 0 nM. In a few lines:
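Full-length recombinant human ETS1 (1 nM, no RUNX1) was incubated, per standard PBM protocols, on double-stranded Agilent 4 × 180k arrays of 36-bp genomic probes whose RUNX1 partner site was mutated. Bound ETS1 was detected with anti-ETS1 antibody (Cell Signaling Technology 14069) and Alexa488-conjugated secondary antibody, then scanned on a GenePix 4400A. Binding level is spot fluorescence intensity, summarised over replicate spots (four printed per sequence) and not normalised.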
For GACTCTTGGGGTTGCACCGCGCTTCCTGCCAGCTTG, the ETS1 binding intensity was 1410.

TAGAAAAGGAAGCAGGGTAGGTGTCGTATCTGGGTC registered an ETS1 binding intensity of 565.

In the case of CTGGGGTAGGGCAGCTCCTCAGAAGCCGGAAATCTG, the ETS1 binding intensity turned out to be 594.

In turn, CCTCTGTGATTTTTAAGAGTAACACACAGGAAGGAG came in with an ETS1 binding intensity of 452.

As for GGTCTCTGCTTCCGGTCCTTGGGGTAGCACCTCTGT, the ETS1 binding intensity is 32000.

Regarding ACGAGAGTCTAGAGGAAACCAACCCTCAACTCACTG, the ETS1 binding intensity was found to be 449.

In turn, GGACTCTGGCAGGAAGCTGTTTGTAGTTGTCACACC came in with an ETS1 binding intensity of 1270.

Take GGCTTTTCCGGGATCCCTTTCGCCTCATCACTGCAG: the ETS1 binding intensity stood at 5710.

The sequence CTTTGCAGGAAGCTGGGGTTCACCTACAGCCTTGTT returned an ETS1 binding intensity of 1000.

The sequence TCCCCCGTTTGGTGTTCAGGCCCTCTTCCTGGAGCT displayed an ETS1 binding intensity of 350.

With CTCCCGTTTCCGCCAGCCACCTGAACTACGGCCCAG, the ETS1 binding intensity worked out at 6570.

Sequence AGCAAAAACGCCCACCACCGGAAAGACGCCTGAAGA returned an ETS1 binding intensity of 1530.

CACTTCCTCTGTGACTGCAGGTTTCCAACTACAAGC: the ETS1 binding intensity was 18700.

GCACGCGCCGTAGGCCGACCCCCGGAACCCTCCGGG showed an ETS1 binding intensity of 406.

With CAGTTCCTTCCTCCGGTTCCTGCACTTGGCCCCAGC, the ETS1 binding intensity was determined as 2650.

The sequence CTTCACGGTGACGGGGAACTACATTTCCCAGAAGGC had an ETS1 binding intensity of 365.

The sequence TTGAATTTATCACGCGGAAAGCAGCTTTTCCTGTGC returned an ETS1 binding intensity of 480.

CCAGCGTTTCCGCACCCTCTCCGATTAGAGGTCCCA came in with an ETS1 binding intensity of 4100.

As for AATCTGAAACAGGAAATAAGTCTGTCGTTGTGTGTT, the ETS1 binding intensity is 4460.

Sequence TAGCAGGAAGCCGATTCGCCCTATATGCAAGCACTT yielded an ETS1 binding intensity of 763.

With CTTACGGCCTCGCGGCATGGGCAGTATCCGCCGCCA, the ETS1 binding intensity was 403.

As for GAGGAAAAAGGAAACAGAAACTCCGAAACTTGCGCC, the ETS1 binding intensity turned out to be 487.

As for GACAACCTACCCCAGCCTTCCTTCCGGGCGCTCAGG, the ETS1 binding intensity is 1160.

With CCTCTGCCCAACCCCAATTTTCCCTTCCTCCGCCTT, the ETS1 binding intensity worked out at 543.

In turn, CGGGAATTGGGGTCTCCGCCGGACGCGAGTTGTGAG registered an ETS1 binding intensity of 382.

Turning to TCCTGGGGCTGAGTGGCAGCTTCCATCCGGTGGGTT, the ETS1 binding intensity was found to be 1120.

For GCCGTTTCCCGGTTCGCTCGGCCGAGGTCGCTATGG, the ETS1 binding intensity was 4670.

Sequence GGAGCGCGCCGGAAACGCGCGGATTCGGCCCGGGAG returned an ETS1 binding intensity of 6990.

Take TAGATGCAGAGAACAACAAACATTTCCGTACGGCTA: the ETS1 binding intensity amounted to 563.

Sequence GGCGGGGCGCGGGCGCAGCTCCGTTTCCGGTGGCTC registered an ETS1 binding intensity of 7200.

For the sequence GAGTGCCGTTTCCCCCGCTCACCTCGGGCTAGGGAG, the ETS1 binding intensity turned out to be 845.

On to GGAACAGGAAAAGCCTCCGGCAGCCCCTGCAGGCGG, for which the ETS1 binding intensity came out at 1810.

In turn, TCTTTTTATTTCCTGTGCAGTCTCGCCTACAGCACT had an ETS1 binding intensity of 14100.

As for CACTCCGCCCCCGCTGTCCCCGCGGCTTCCGCCACG, the ETS1 binding intensity came to 617.

Sequence AGAGCGCGCCTTCCGTGACGCCGTAAGAGCGCGCCT came in with an ETS1 binding intensity of 464.

ATGGCGGAGCGGAAGTCCCAGCTACAACGCGAAAAG returned an ETS1 binding intensity of 8820.

Sequence AAGTCTGCATTTGGGAGAGGAACATCCTGTTTGCCT had an ETS1 binding intensity of 3280.

For CCTCTGGTGAGGCCAGCAGAGGCTCAGGAAGGGAGC, the ETS1 binding intensity stood at 340.

Consider AACTCGTGGGGTTTTCTTCTGATCTTCCTCCCCGCT, for which the ETS1 binding intensity amounted to 374.

In turn, GTCACAGAGGGAGGAAGGCCGAACCTCGGGAGCCTA had an ETS1 binding intensity of 465.

In turn, TCGGGCTGGGGTCCTACGGCACTTCCCGTGGGAGGA showed an ETS1 binding intensity of 618.

Sequence GTTGCCCCACTTCCTGCCAGTGCTTTTTGGTTGGCC gave an ETS1 binding intensity of 16300.

CTGGCCTCAGGAAGGAGGCAGTTTTGGGGCCCCAGG yielded an ETS1 binding intensity of 351.

Turning to CACGGGGCGTTCAACCCCAGGAGGAAATATCGCTTC, the ETS1 binding intensity was found to be 366.

Regarding TTACAGGGGCCGGAAGTGGCCTGCAGGCGGAGAAGT, the ETS1 binding intensity was determined as 19600.

In turn, CAAGAGCCGGAAGTCCCTTGTGCCGTAGTCCTTCCC displayed an ETS1 binding intensity of 9220.

Take GTGCCGAATCCACCTCTTTCTTTCCTGCCTTCCTCC: the ETS1 binding intensity stood at 516.

Sequence GCTTTTCTGTGATTTTTCTCACACGGGAAGTGAGAG returned an ETS1 binding intensity of 522.

In turn, AAGCAGCCGCCGAGGGGAGACGCCGGAAGTCCCGCC gave an ETS1 binding intensity of 2530.

In the case of GGGGGCGGAAGTTTCGGTGCATTGTAGGTTCTCCTG, the ETS1 binding intensity is 2590.

In the case of CATAGACCGGATGCCTCGTCAACGACAGAAACCAAT, the ETS1 binding intensity was 8650.

For TGACTAGAGAGCACACACATATCCTGCATTCTCAGA, the ETS1 binding intensity was determined as 846.

ACTTACTTCCCGACGTCACAGCCTCCGACACCTCAG showed an ETS1 binding intensity of 1520.

As to CCGCGAACCCCAATGTATTTCCATCACAGGAAGAGA, the ETS1 binding intensity is 512.

In turn, CGGAGGCCGCTTGGGGGCTCCCGGAAGCGGCGCCCT displayed an ETS1 binding intensity of 718.

Consider CCGGAGGTTTCGGGAGCTGAGGGAGGAAACAGGGAC, for which the ETS1 binding intensity is 438.

Consider ACCAGCAACGGAAATCAGATCTCTTGTAGTTATTAT, for which the ETS1 binding intensity is 2290.

AAGAGCTCAGCACATACCCACTTCCTCCCACAGTGC: the ETS1 binding intensity was found to be 1930.

In turn, GGCCGGACGCCATCTTGCTGGTTTACGGCCGGTCTT returned an ETS1 binding intensity of 1010.

AGTAACCAGCAGGCTGTGCCGGCAGGATGTTGTCTT: the ETS1 binding intensity came to 469.

Turning to CACCTCCCACTCAGCACAGAGTTTCCTGGTGTTTTA, the ETS1 binding intensity was determined as 768.

Turning to GAGTGGCTGTTGTCTCGGGCGGATGGGGAGAGGGGA, the ETS1 binding intensity was 598.

GGCACTGGCTTTCCGGGGCCTCTCTGGGCTGGACAG yielded an ETS1 binding intensity of 659.

CGGCCTCTTCCGGTCACCTGGCCCGTCGCTGTCCCG had an ETS1 binding intensity of 17300.

With CAGCCTGTAAAGCTCAGAACATCCCTGGAGCCCTTT, the ETS1 binding intensity turned out to be 611.

Regarding TCCACAGCCGGTTCCGGCCGGTTCCCAGAAGCCCCT, the ETS1 binding intensity came to 2340.

The sequence AGGGTGTTCTAAGCACGAGCTCAGGATGCTGTCTGT showed an ETS1 binding intensity of 362.

In turn, CCTGGCGTTCCTACGGGCCGCGGATGGCGGTGGATT gave an ETS1 binding intensity of 328.

The sequence AGCGTCTATTTCCTCCGACTGGGGCGCGGCTGATAC yielded an ETS1 binding intensity of 2800.

With TCTCTTCCTGAACAGGCAATTGCCTGGGGTCCAACA, the ETS1 binding intensity worked out at 3020.

In turn, CTCCTTCCTGATCGGGCAGGAACTAATCACAGGAGG had an ETS1 binding intensity of 2100.

As to TGGCGGCGGATACTGCCCATGCCGCGAGGCCGTAAG, the ETS1 binding intensity was determined as 565.

In turn, CAGTTCTCAGGCTTCCTCCCTTCACCAGAGCTGGCT displayed an ETS1 binding intensity of 922.

The sequence GCCTGAGCGGAAACCCGGCGCCACCTCAAGATGGCA had an ETS1 binding intensity of 2650.

ACTGTTGTCAGACCAAAGGAAGAACTTCCCAACCTC showed an ETS1 binding intensity of 489.

The sequence TCCCCGGCAGCTTCCTCGCCCCGACCCCAGTGTTCC registered an ETS1 binding intensity of 560.

Take CCGCCACGGCCGCCGCCATCTCCACCGGAAGAATGG: the ETS1 binding intensity came to 639.

Sequence GGGAGGTCACATCCTGCCCGCGCTCTCAGAAAAGCT came in with an ETS1 binding intensity of 10100.

Regarding CCCCGCGGAACTCTGGCACAGTCAGCTGACAGCAGA, the ETS1 binding intensity came out at 398.

Take CTGTCTGCTTCCCGTGGCCAGCCCTGATCGCGGCCC: the ETS1 binding intensity was found to be 953.

For the origin of these results see the supplement of paper PMC10681739.
